In all, about 110,000 compounds were measured (“z-score”: median about -0.1, highest 2% from about 2 on). This is one part of the list.
Target: Metabotropic glutamate receptor 8 (Rattus norvegicus) (UniProt P70579)
Assay: rat mGluR8 modulators via GIRK flux, primary screen, cell-based, thallium flux, HTS (AID 488969)
Details: HEK293 rat mGluR8, GIRK (G protein-gated inwardly rectifying potassium channel) thallium flux, FluoZin2; at 10 µM; stronger effect = higher value; submaximal glutamate (EC20) added with thallium

Sequence of UniProt P70579 (P70579 whole entry, looked up): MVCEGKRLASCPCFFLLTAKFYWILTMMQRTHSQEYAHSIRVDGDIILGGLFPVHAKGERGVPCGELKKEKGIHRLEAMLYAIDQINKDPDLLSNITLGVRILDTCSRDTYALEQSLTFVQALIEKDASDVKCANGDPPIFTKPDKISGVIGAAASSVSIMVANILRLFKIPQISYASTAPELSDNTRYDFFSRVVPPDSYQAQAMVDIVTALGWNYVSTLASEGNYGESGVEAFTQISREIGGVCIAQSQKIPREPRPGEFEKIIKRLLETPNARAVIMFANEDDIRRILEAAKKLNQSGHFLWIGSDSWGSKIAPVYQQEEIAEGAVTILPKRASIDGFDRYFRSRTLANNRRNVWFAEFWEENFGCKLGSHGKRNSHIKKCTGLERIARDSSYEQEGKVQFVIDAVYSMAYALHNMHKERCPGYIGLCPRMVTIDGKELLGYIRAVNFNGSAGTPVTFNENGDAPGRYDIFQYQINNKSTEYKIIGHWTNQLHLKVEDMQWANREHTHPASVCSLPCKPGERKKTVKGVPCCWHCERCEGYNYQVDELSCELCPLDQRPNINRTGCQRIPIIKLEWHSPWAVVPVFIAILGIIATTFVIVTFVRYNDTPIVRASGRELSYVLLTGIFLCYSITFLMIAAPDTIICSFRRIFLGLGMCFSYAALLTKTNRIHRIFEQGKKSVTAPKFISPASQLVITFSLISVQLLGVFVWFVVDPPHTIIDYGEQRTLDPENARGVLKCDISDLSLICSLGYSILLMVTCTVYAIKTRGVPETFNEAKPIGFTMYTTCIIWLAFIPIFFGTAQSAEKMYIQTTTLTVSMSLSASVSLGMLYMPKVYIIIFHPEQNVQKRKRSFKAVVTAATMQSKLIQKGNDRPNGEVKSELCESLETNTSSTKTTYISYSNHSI

Compound	z-score
C/C(=N\OCC(=O)Nc1ccccc1C(C)(C)C)c1ccc2c(c1)OCCO2	-0.212
Cc1ccc(SC(C)c2nc(-c3cccnc3)no2)cc1 (centres undefined)	-0.789
Cn1c(=O)oc2cc(S(=O)(=O)NCCC(=O)N3CC=C(c4ccccc4)CC3)ccc21	0.133
COc1ccc(C(O)(C(=O)NNc2ccc(C)cc2)c2cccs2)cc1 (centres undefined)	0.0939
CCOC(=O)c1ccc(NC(=S)NC(=O)c2nn(CC)cc2Br)cc1	1.17
Cc1cccc(N2C(=O)/C(=C\c3ccc(OC(F)F)cc3)c3ccccc3C2=O)c1	-0.0122
CCOC(=O)c1cc2c(=O)n3cccc(C)c3nc2n(Cc2cccnc2)c1=N	-0.0747
CO/N=C/NC(=O)c1ccc([N+](=O)[O-])c(CS(=O)(=O)c2ccc(Cl)cc2)c1	-0.17
COc1ccccc1OCC(=O)n1cc(C(=O)c2cc(Cl)cc(Cl)c2O)cn1	-0.0132
COc1cc(C(=O)NCc2nnc(SCC(=O)Nc3cc(C)cc(C)c3)o2)cc(OC)c1OC	-0.362
O=C(Nc1ccc(N2CCOCC2)cc1)NC1CCCCC1	0.289
O=C(N/N=C\c1cccc([N+](=O)[O-])c1O)C1COc2ccccc2O1 (centres undefined)	-0.13
O=C1NCCCC2c3c(cc(Br)c(O)c3Br)OC12N1CCCCC1 (centres undefined)	-0.129
O=C1CC(SCc2nc3ccccc3[nH]2)C(=O)N1c1ccc(Cl)cc1 (centres undefined)	0.13
CSc1nc(Oc2ccc(=O)[nH]n2)nc(N(C)C)n1	-0.213
COc1ccc(NC(=S)NCc2ccco2)c(OC)c1	-0.214
CSCCC(NC(=O)c1ccccc1)C(=O)NC1CC1 (centres undefined)	0.177
Cc1noc(C)c1CSCC(=O)OCC(=O)NC1CCCCC1	0.822
CCCn1c(=N)c(C(=O)NCc2ccc3c(c2)OCO3)cc2c(=O)n3cccc(C)c3nc21	1.02
COC(=O)C(Cc1ccccc1)NC(=O)CSc1nc(C)cc(=O)[nH]1 (centres undefined)	0.408
COc1cc(C2C(C#N)=C(N)Oc3cc(N)ccc32)cc(OC)c1OC (centres undefined)	-1
CSCCC(C(=O)N1C[C@]2(C)C[C@H]1CC(C)(C)C2)N1C(=O)c2ccccc2C1=O (some centres undefined)	-0.0688
CCOC(=O)CSC1=C(C#N)C(=O)NC2(CCCCC2)S1	-0.247

Compound	z-score
N=c1c2c(-c3ccccc3)c(-c3ccccc3)n(Cc3ccco3)c2ncn1CCO	0.759
C1=CC2CC1CC2CNCc1ccco1 (centres undefined)	0.0275
O=[N+]([O-])c1cccc(/C=N/Nc2cc(Cl)nc(-c3ccccc3)n2)c1	-0.108
COc1ccc(Nc2cc(C(=O)NCCCN3CCOCC3)c3ccccc3n2)c(OC)c1	0.191
CCc1ccc(N2CC(C(=O)Nc3ccc(C)c(S(=O)(=O)N4CCOCC4)c3)CC2=O)cc1 (centres undefined)	0.319
CCOC(=O)c1cnc(SCc2cccc3ccccc23)nc1N	-0.552
CS(=O)(=O)NN1C(=O)c2ccccc2NC1c1cccc2cccnc12 (centres undefined)	0.0807
COc1ccc(C(=O)Nc2cccc(-c3cnc4ccccc4n3)c2)cc1	0.0862
Cc1cc(OC(=O)c2ccc(Cl)cc2Cl)nc(C)n1	-1.35
CCCCNC(=O)C1CCN(S(=O)(=O)c2c(C)noc2/C=C\c2ccc(OC)cc2)CC1	-0.000832
COc1ccc(C(=O)Nc2cccc(-c3nc4ncccc4o3)c2C)cc1OC	0.116
CCOc1ccc(N(CC(=O)OC)S(=O)(=O)c2ccc(OC)c(OC)c2)cc1	0.0607
CCOC(=O)C1=C(C)Nc2nc(SCC)nn2C1c1ccc(OC)cc1 (centres undefined)	-0.135
COc1ccc(CN2CCN(c3ccc(F)cc3)CC2)c(OC)c1OC	-0.227
Cc1c(NC(=O)C2Cc3ccccc3CN2C(=O)c2ccco2)c(=O)n(-c2ccccc2)n1C (centres undefined)	0.163
CCCc1nc(NCc2ccccc2)c(C#N)c2c1CCCC2	-0.119
CCn1c(COc2ccc(C)cc2)nnc1SCc1nc2ccccc2[nH]1	-0.0293
C/C=C/c1ccc(OCCn2cncn2)c(OC)c1	-0.203
CCn1cc(CNC(=O)/C=C/c2ccc([N+](=O)[O-])cc2)c(C)n1	-0.204
CCC(=O)N1CCc2cc(S(=O)(=O)N3CCc4ccccc43)ccc21	-0.163
Cc1cccc(-c2cc(C(=O)N3CCCc4ccccc43)c3ccccc3n2)c1	-0.00153
CCC1(CC)Cc2ccccc2C(CC(=O)N2CCOCC2)=N1	-0.156
Cc1ccc2c3c(c(SCC(=O)Nc4nccs4)nc2c1)CCCC3	0.493

Compound	z-score
Cc1ccc(S(=O)(=O)N2CCOCC2)cc1C(=O)NCCN1C(=O)S/C(=C\c2ccccc2Cl)C1=O	0.000791
COc1ccc(C(=O)NC(CO)c2nnc(SCc3ccc(Cl)c(Cl)c3)n2C)cc1 (centres undefined)	0.242
CCCS(=O)(=O)C(=C1NCCO1)S(=O)(=O)CCC	-0.0817
O=C(NC1CCCCC1)C1CCCN(S(=O)(=O)c2cccs2)C1 (centres undefined)	-0.234
CC(NS(=O)(=O)c1ccc2c(c1)OCCCO2)C(=O)O (centres undefined)	0.595
O=c1cc(CN2CCN(S(=O)(=O)/C=C/c3ccccc3)CC2)c2ccc(O)cc2o1	-0.179
N#CCC(=O)Nc1sc2c(c1C(N)=O)CCCC2	-0.0548
Cc1nn(CC(=O)NCCN2CCOCC2)c(C)c1[N+](=O)[O-]	-0.415
CCOc1ccc(-c2nn(-c3ccccc3)cc2/C=C2\SC(N)=NC2=O)cc1C	-0.255
Cn1c(SCC(=O)N2CCN(S(=O)(=O)c3ccc(Cl)cc3)CC2)nc2ccccc21	-0.0808
Cc1cc(C)n(-c2nc(NC(C)(C)C)nc(NC(C)(C)C)n2)n1	0.00607
CCNC(=S)NNC(=O)c1cc(-c2cc(C)ccc2C)nc2ccccc12	-0.78
Cc1ccc(NC(=S)N2CCn3cccc3C2c2cccnc2)cc1 (centres undefined)	-0.119
C=CCN1C(=O)N/C(=C/c2ccc(C)o2)C1=O	-0.164
COc1cccc(C2C3CN(C)CC=C3C(C#N)=C(N)C2(C#N)C#N)c1OC (centres undefined)	-0.444
O=C(OCc1c(Cl)nc2sccn12)c1cc2c(s1)CCCC2	0.322
COc1ccccc1NCCC#N	0.226
O=C(COC(=O)c1cccnc1Nc1ccccc1F)NCc1ccc2c(c1)OCO2	-0.0875
COc1ccc(N2CCN(CCCNC(=O)Nc3ccccc3)CC2)cc1	0.121
O=C(Nc1ccc2c(c1)OCO2)OCc1ccccc1	0.897
CCOC(=O)C1=C(C)Nc2nnnn2C1c1cccnc1 (centres undefined)	0.349
O=C(CN1CCOCC1)Nc1c2c(nc3c1CCC3)CCC2	0.117
Clc1ccc(CNCCC2=CCCCC2)cc1	2.27

Source: PubChem BioAssay AID488969 (Vanderbilt High Throughput Screening Facility, 2010)
